# Test results reported in the supplement of paper PMC10670038.
# Counter-ions that a name gives are not always drawn. ± gives the standard deviation of the averaged measurements. Over roughly 2,000 compounds, “relative cell viability vs DMSO, compound alone” has its median near 1.1; the lowest 2% begin near 0.29. This is one part of the list.
# System: TE10
# Test: relative cell viability vs DMSO, compound alone (fraction); TE10 is an esophageal squamous carcinoma line; higher = less cytotoxic
# Details: 2 µM; 48 h
# Procedure: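 TE10 ESCC cells (1,000/well, 384-well plates) were treated with Selleck bioactive library compounds at 2 uM alone for 48 h. Viability was read by CellTiter-Glo and expressed relative to DMSO wells. Two technical replicates (A, B).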
row,SMILES,relative cell viability
1,O=C(/C=C/n1cnc(-c2cc(C(F)(F)F)cc(C(F)(F)F)c2)n1)N1CC(F)(F)C1,0.473 ± 0.06
2,NCc1c[nH]c(=S)n1[C@@H]1CCc2c(F)cc(F)cc2C1 [(R)-Nepicastat HCl],1.08 ± 0.04
3,Cc1ccc2c(Cl)cc(Cl)c(O)c2n1 [Chlorquinaldol],0.785 ± 0.025
4,N=C(N)N/N=C/c1c(Cl)cccc1Cl [Guanabenz Acetate],1.17 ± 0.058
5,Brc1c(NC2=NCCN2)ccc2nccnc12 [Brimonidine Tartrate],1.06 ± 0.014
6,CN(C)CCOC(=O)COc1ccc(Cl)cc1 [Meclofenoxate (Centrophenoxine) HCl],1.19 ± 0.012
7,CNC(CC(=O)O)C(=O)O [NMDA (N-Methyl-D-aspartic acid)],1.16 ± 0.023
8,Cc1cc(Nc2ccc(NC(=O)c3ccc(Nc4ccnc5ccccc45)cc3)cc2)nc(N)n1,1.21 ± 0.028
9,C[C@]12CC[C@@H]3c4ccc(O)cc4CC[C@H]3[C@@H]1CC[C@@H]2OC(=O)CCC1CCCC1 [Estradiol Cypionate],1.13 ± 0.085
10,CCS(=O)(=O)Nc1ccc2[nH]c(O)c(C(=Nc3ccc(CN4CCCCC4)cc3)c3ccccc3)c2c1 [Hesperadin],0.423 ± 0.0064
11,CC(C)N(CCCNC(=O)Nc1ccc(C(C)(C)C)cc1)C[C@H]1O[C@@H](n2ccc3c(N)ncnc32)[C@H](O)[C@@H]1O,0.952 ± 0.14
12,C[C@@H]1[C@H](O)[C@@H](C)/C=C/C=C/C=C/C=C/C=C/C=C/C=C/[C@H](O[C@@H]2O[C@H](C)[C@@H](O)[C@H](N)[C@@H]2O)C[C@@H]2O[C@](O)(C[C@@H](O)C[C@@H](O)[C@H](O)CC[C@@H](O)C[C@@H](O)CC(=O)O[C@H]1C)C[C@H](O)[C@H]2C(=O)O [Amphotericin B],1.16 ± 0.049
13,CC(C)/N=c1\cc2n(-c3ccc(Cl)cc3)c3ccccc3nc-2cc1Nc1ccc(Cl)cc1 [Clofazimine],0.929 ± 0.062
14,O=C1Cc2cc(CCN3CCN(c4nsc5ccccc45)CC3)c(Cl)cc2N1 [Ziprasidone HCl],1.15 ± 0.031
15,O=C(NOCCO)c1ccc2cncn2c1Nc1ccc(I)cc1F,0.865 ± 0.032
16,CCOc1cc(C(=O)N2CCC(N3CCN(C)CC3)CC2)ccc1Nc1ncc2c(n1)N(C1CCCC1)c1ccccc1C(=O)N2C,0.991 ± 0.054
17,O=c1cc(-c2ccc(O)c(O)c2)oc2cc(O)cc(O)c12 [Luteolin],0.9823 ± 0.0049
18,O=C(Cc1ccc(-c2ccc(OCCN3CCOCC3)cc2)cn1)NCc1ccccc1,0.816 ± 0.05
19,Nc1ncn([C@H]2C[C@H](O)[C@@H](CO)O2)c(=O)n1 [Decitabine],1.339 ± 0.0036
20,CCCN(CCc1cccs1)[C@H]1CCc2c(O)cccc2C1 [Rotigotine],1.09 ± 0.023
21,Cc1cc(=O)n(-c2ccccc2)n1C [Antipyrine],1.07 ± 0.031
22,Clc1ccc(COC(Cn2ccnc2)c2ccc(Cl)cc2Cl)c(Cl)c1 (stereo not drawn) [Miconazole],1.02 ± 0.037
23,Clc1ccc(COC(Cn2ccnc2)c2ccc(Cl)cc2Cl)c(Cl)c1 (stereo not drawn) [Miconazole Nitrate],1.01 ± 0.012
24,CC(C)(C)C[C@@H]1N[C@@H](C(=O)N[C@H]2CC[C@H](O)CC2)[C@H](c2cccc(Cl)c2F)[C@]12C(=O)Nc1cc(Cl)ccc12,1.14 ± 0.045

row,SMILES,relative cell viability
1,O=c1c2ccccc2oc2ccccc12 [Xanthone],1.139 ± 0.01
2,CO[C@H]1O[C@@H]2O[C@@]3(C)CC[C@H]4[C@H](C)CC[C@@H]([C@H]1C)[C@@]24OO3 [Artemether],1.07 ± 0.02
3,Cn1ncc(Cl)c1-c1cc(C(=O)N[C@H](CN)Cc2cccc(F)c2)sc1Cl,0.757 ± 0.01
4,NC12CC3CC(CC(C3)C1)C2 [Amantadine HCl],1.149 ± 0.0057
5,CC1CCc2c(N3CCC(O)CC3)c(F)cc3c(=O)c(C(=O)O)cn1c23 (stereo not drawn) [Nadifloxacin],0.991 ± 0.091
6,CO[C@@H](C(=O)N1Cc2[nH]nc(NC(=O)c3ccc(N4CCN(C)CC4)cc3)c2C1)c1ccccc1,1.07 ± 0.051
7,CN1CCN(C2=Nc3cc(Cl)ccc3Nc3ccccc32)CC1 [Clozapine],1.12 ± 0.049
8,Cc1c(Cc2ccc3ccccc3n2)c2cc(F)ccc2n1CC(=O)O,1.08 ± 0.054
9,C=CC(=O)N1CCC(Oc2cc3c(Nc4ccc(Cl)c(Cl)c4F)ncnc3cc2OC)CC1 [Poziotinib (HM781-36B)],1.12 ± 0.03
10,CCN(CCO)CCCOc1ccc2c(Nc3cc(CC(=O)Nc4cccc(F)c4)[nH]n3)ncnc2c1 [Barasertib (AZD1152-HQPA)],1.035 ± 0.0066
11,Cc1ccc(NC(=O)c2ccc(CN3CC[C@H](N(C)C)C3)c(C(F)(F)F)c2)cc1Nc1nccc(-c2cncnc2)n1 [Bafetinib (INNO-406)],1.151 ± 0.0038
12,CC1(C)CCC(CN2CCN(c3ccc(C(=O)NS(=O)(=O)c4ccc(NCC5CCOCC5)c([N+](=O)[O-])c4)c(Oc4cnc5[nH]ccc5c4)c3)CC2)=C(c2ccc(Cl)cc2)C1,1.09 ± 0.12
13,CC(C)(C)n1nc(-c2ccc(Cl)cc2)c2c(N)ncnc21,0.729 ± 0.1
14,CCCCCCCCCCC[C@@H](C[C@@H]1OC(=O)[C@H]1CCCCCC)OC(=O)[C@H](CC(C)C)NC=O [Orlistat],0.937 ± 0.048
15,CS(=O)(=O)c1cccc(CNc2nc(Nc3ccc4c(c3)CCC(=O)N4)ncc2C(F)(F)F)c1,0.958 ± 0.065
16,COc1cc2ncc(-c3ccccc3)nc2cc1OC [Tyrphostin AG 1296],0.999 ± 0.063
17,COC1C(O)CC(=O)OC(C)CC=CC=CC(OC2CCC(N(C)C)C(C)O2)C(C)CC(CC=O)C1OC1OC(C)C(OC2CC(C)(O)C(O)C(C)O2)C(N(C)C)C1O (stereo not drawn) [Spiramycin],1.11 ± 0.04
18,CCC[C@H](Nc1nc(-c2ccc(NC(=O)NCC)c(OC)c2)ncc1C)c1cccnc1 [CYT997 (Lexibulin)],0.792 ± 0.025
19,O=NO [Sodium Nitrite],1.17 ± 0.056
20,COc1ccc(C(=O)Nc2sc3c(c2C(N)=O)CCCC3)cc1OC,1.06 ± 0.068
21,O=C(O)CCC(=O)Nc1ccc(Br)cn1 [Bikinin],1.05 ± 0.031
22,CC(C)(Oc1ccc(Cl)cc1)C(=O)O [Clofibric Acid],0.9951 ± 0.0068
23,COc1cc(Nc2ncc(F)c(Nc3ccc4c(n3)NC(=O)C(C)(C)O4)n2)cc(OC)c1OC [R406 (free base)],0.844 ± 0.051
24,COc1cc(Nc2ncc(F)c(Nc3ccc4c(n3)NC(=O)C(C)(C)O4)n2)cc(OC)c1OC,0.96 ± 0.015
